Read counts are not given, so values of variants with three or more changes are uncertain.
B1: CPEB3 Ribozyme (parent)
chain: UAACAGGGGGCCACAGCAGAAGCGUUCACGUCGCAGCCCCUGUCAGAUUCUGGUGAAUCUGCGAAUUCUGCUGUAUAUCUC

Variants of: B1
Experiment: self-cleavage, relative activity (ratio to wild type); higher = more cleavage; in vitro, sequencing
Outline: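 Relative activity compares each variant's cleaved/total read fraction with that of the unmutated ribozyme. To get these fractions, barcoded CPEB3 ribozyme libraries from rounds of error-prone PCR were transcribed with T7 RNA polymerase for 5 hours at 37°C and then given 15 min of DNase I treatment before EDTA was added. The RNAs were reverse transcribed with template switching and sequenced on Illumina, and DNA sequencing linked barcodes to variants. A minimum of 5 reads applied, and three batches were averaged.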
For UAACAGGGGGCCACAGCAGAAGCGCUCACGCCGCAGCCCCUGUCAGAUUCUGGAGAAUCUGCGAAUUCUGCUGUAUAUCUC, the self-cleavage was 0.16.
Work on UAACAGGGGGCCACAGCAGAAGCGCUCACGUCGCAGCCCCUGUCAGAUUCAAGUGAAUCUGCGAAUUCUGCCGUAUAUCUC yielded a self-cleavage of 0.18.
UAACAGGGGGCCACAGCAGAAGCGCUCACGUCGCAGCCCCCGUCAGAUUCUGGAGAGUCUGCGAAUUCUGCUGUAUAUCUC gave a self-cleavage of 0.41.
UAACAGGGGGCCACAGCAGAAGCGCUCACGUCGCAGCCCCUGUCAGAUCCUGGUGGAUCUGCUAAUUCUGCUGUAUAAAUC showed a self-cleavage of 0.14.
Work on UAACAGGGGGCCACAGCAGAAGCGCUCACGCCGCAGCCCCUGUCAGAUUCUGGCGAAUCUGCGAAUUCUGCUGUACAUCUC yielded a self-cleavage of 0.29.
UAACAGGGGGCCACAGCAGAAGCGCUCACGCCGCAACCCCUGUCAGAUUCCGGUGAAUCUGCGAAAUCUGCUGUAUAUCUC gave a self-cleavage of 0.08.
Variant UAACAGGGGGCCACAGCAGAAGCGCUCACGUCGCAGCCCCAGUCAGAUUCUGGUGUAUCUGCGAAUUCUGCUGUAUACCUC has a self-cleavage of 0.17.
UAACAGGGGGCCACAGCAGAAGCGCUCACGUCGCAGCCCCCGUCAGAUUCUGGUGAAUCAGCGAAUUCUGCUGUAUAUCUC showed a self-cleavage of 0.32.
In the case of UAACAGGGGGCCACAGCAGAAGCGCUCACGUCGCAGCCCCUGUCAGAUUCCGGUGAAUCUGCGAAUUCUGCUGUAUAUCCC, the self-cleavage is reported as 0.22.
For UAACAGGGGGCCACAGCAGAAGCGCUCACGUCGCAGCCCCUGCCAGAUUCUGGUGAAUCUGCGAAUUCUGCUGCAUAUCUC, the self-cleavage was 0.16.
With UAACAGGGGGCCACAGCAGAAGCGCUCACGUCGCAGCCCCUGUCAGAUUCUGGUGAACCUGCGGAUUCUGCUGUAUAUCUC the self-cleavage was 0.15.
In the case of UAACAGGGGGCCACAGCAGAAGCGCUCACGUCGCAGCCCCUGUCAGAUUCUGGGGAAUCUGCGAGUUCCGCCGUAUAUCUC, the self-cleavage is reported as 0.08.
UAACAGGGGGCCACAGCAGAAGCGCUCACGUCGCAGCCCCCGUCAGACUCUGGUGAAUCUGCGAAUUCUGCUGUAUAUCUC gave a self-cleavage of 0.3.
UAACAGGGGGCCACAGCAGAAGCGCUCACGUCGCAGCCCCUGCCCGAUUCUGGUGAAUCUGCGAACUCUGCUGUAUAUCCC showed a self-cleavage of 0.13.
For UAACAGGGGGCCACAGCAGAAGCGCUCACGUCGCAGCCCCUGUCAGAUUCCGGUGAAUCUGCGAAUUCUGCCGUAUAUCUC, the self-cleavage was 0.15.
UAACAGGGGGCCACAGCAGAAGCGCUCACGUCGCAGCCCCAGUCAGAUUCUGGUGAAUCUGCGAAUUCUGCUGUAUAUCGC gave a self-cleavage of 0.21.
For UAACAGGGGGCCACAGCAGAAGCGCUCACGUCGCAGCCCCCGACAGAUUCUGGUGAAUCUGCGAAUUCUGCUGUAUGUCUC, the self-cleavage was 0.22.
UAACAGGGGGCCACAGCAGAAGCGCUCACGUCGCAGCCCCUGCCAGAUUCUGGUGAAUCUGCGAAUUCUGCUGUACAUCUC showed a self-cleavage of 0.16.
UAACAGGGGGCCACAGCAGAAGCGCUCACGUCGCAGCCCCAGUCAGGUUCUGGUGUAUCUGCGGAUUCUGCUGUAUACCUC gave a self-cleavage of 0.04.
UAACAGGGGGCCACAGCAGAAGCGCUCACGUCGCAGCCCCAGUCAGAUUCUGGUGAAUCUGCGAAUCCUGCUGUAUAUCUC gave a self-cleavage of 0.12.
UAACAGGGGGCCACAGCAGAAGCGCUCACGUCGCAGCCCCUGUCAGAUUCCGGUGAAUCCGCGAAUUAUGCUGUAUAUCUC gave a self-cleavage of 0.07.
In the case of UAACAGGGGGCCACAGCAGAAGCGCUCACGUCGCAGCCCCCGUCAGAUUCUGGCGAAUCUGUGAAUUCUGCUGUAUAUCUC, the self-cleavage is reported as 0.34.
For UAACAGGGGGCCACAGCAGAAGCGCUCACGUCGCAGCCCCUGUCAGAUUCUGGUGAAUCCGCGAAUUCUGCUGUAUACCUC, the self-cleavage was 0.15.
Variant UAACAGGGGGCCACAGCAGAAGCGCUCACGUCGCAGCCCCAGUCAGAUUCUGGUGAAUCUGCGAAUUCAGCUGUAUACCUC has a self-cleavage of 0.18.
UAACAGGGGGCCACAGCAGAAGCGCUCACGUCGCAGCCCCUGCCAGAUUCUGGUGGAUCUGCGAAUUCUGCUGUAUACCUC showed a self-cleavage of 0.28.
Variant UAACAGGGGGCCACAGCAGAAGCGCUCACGUCGCAGCCCCUGCCAGAUUCUGGUGAAUCUGCGAAUUCUGCUGCAUAUCCC has a self-cleavage of 0.17.
For UAACAGGGGGCCACAGCAGAAGCGCUCACGUCGCAGCCCCUGUCAGAUUCUGGUGAAUCCGCGAAUUCUGCAGUACAUCUC, the self-cleavage was 0.08.
With UAACAGGGGGCCACAGCAGAAGCGCUCACGGCGCAGCCCCUGUCGGAUUCUGGUGAAUCUGCGAAUUCUGCUGUAUAACUC the self-cleavage was 0.17.
UAACAGGGGGCCACAGCAGAAGCGCUCACGUCGCAGCCCCUGUCAGAUUCAGGUGGACCUGCGAAUUCUGCUGUAUAUCUC gave a self-cleavage of 0.07.
Work on UAACAGGGGGCCACAGCAGAAGCGCUCACGUCGCAGCCCCUGCCAGAUACUGGUGAAUCUGCGAGUGCUGCUGUAUAUCUC yielded a self-cleavage of 0.04.
UAACAGGGGGCCACAGCAGAAGCGCUCACGUCGCAGCCCCAGUCAGAUUCUGGUGGAUCUGCGGAUUCCGCUGUAUAUCUC showed a self-cleavage of 0.06.
UAACAGGGGGCCACAGCAGAAGCGCUCACGUCGCAGCCCCUGCCGGAUUCUGGUGAAUCUGCGAGUUCUGCUGUAUAUCUC showed a self-cleavage of 0.16.
In the case of UAACAGGGGGCCACAGCAGAAGCGCUCACGUCGCAGCCCCUGUCAGAUUCUGGAGUAUCUGCGAAUUCUGCUGUAUAACUC, the self-cleavage is reported as 0.15.
With UAACAGGGGGCCACAGCAGAAGCGCUCACGUCGCAGCCCCAGUCAGAUUCUGGUGAAUCCGCGAAUUCUGCUUUAUAUCUC the self-cleavage was 0.09.

From the RNAGym collection of RNA variant scans (doi:10.1093/nar/gkz1192)
